# PubChem BioAssay AID651820 (National Center for Advancing Translational Sciences (NCATS), 2012)
# The campaign covered roughly 340,000 compounds. About 12,000 (3.5%) were called active. Inconclusive results, whose numbers are uncertain, are shown with a selection of clear calls. Calls follow the shape of the dose curve; as a rule, active = well fitted inhibition curve with a large enough effect; inconclusive = small, poorly fitted or top-dose-only effect, or another doubt; inactive = no such curve, though single readings can be large or run the other way. No potency is given beside an inconclusive call; the fits are too rough.
# Experiment: qHTS Assay for Inhibitors of Hepatitis C Virus (HCV)
# Details: Huh7.5.1 HCVcc-Cre (HCVcc is cell-culture hepatitis C virus) infection, luciferase reporter, 44 h; activity change, negative = inhibition: at 41.8 µM (top of the series) unless noted
# Summary of the method: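 Infectious HCV cell culture screen: compound-treated cells (1,000/well, pre-plated 4 h) are infected with HCVcc-Cre at roughly 0.5 moi and grown 44 h. Infection is quantified by luciferase signal after 15 min substrate incubation at room temperature.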
# % is scaled to controls: 0 for no effect and ±100 for the full control effect; potency is read from the fitted curve at half-maximal effect; tags tell the direction and shape of the fitted curve.
Compound,"activity change, negative = inhibition",Potency
O=C(NC1Cc2ccccc2C1)c1cc(COc2ccc(F)cc2Cl)on1,inactive: -13.7%,–
COc1cc(CCCN2C(=S)NC[C@@H]2CC2CCCCC2)cc(OC)c1OC,–,"inconclusive [inhibitor, partial curve]"
CCOC(=O)c1cccc(NC(=O)c2c(N)n(C)c(=O)[nH]c2=O)c1,inactive: 22.7%,–
C/C(=C\c1ccccc1)C(=O)N1CCN(c2cccc(C(F)(F)F)c2)CC1,inactive: -11.7%,–
COc1c(S(=O)(=O)N2CCN(c3ccc(F)cc3)CC2)ccc(Cl)c1Cl,–,"inconclusive [inhibitor, single point]"
COc1ccc(CCn2c(C)cc(C(=O)CSc3nc(N)cc(=O)[nH]3)c2C)cc1,–,active: 11.2 µM
O=C(Nc1ccccc1C(=O)Nc1ccccn1)c1cccc([N+](=O)[O-])c1,–,"inconclusive [inhibitor, partial curve]"
CCCCCCCCNC(CO)(CO)CO,inactive: -21.4%,–
CCOc1ccc(CCNC(=O)COC(=O)/C=C/c2ccc(C)o2)cc1OCC,inactive: -26.2%,–
CN1CCN(C(=S)c2cn(Cc3ccccc3)c3ccccc23)CC1,–,"inconclusive [inhibitor, single point]"
CC(C)(C)c1cc(NC(=O)CCSc2nnc3ccccn23)cc(C(C)(C)C)c1,–,active: 3.98 µM
O=C(CN1c2cccc3cccc(c23)S1(=O)=O)Nc1cccc(S(=O)(=O)N2CCOCC2)c1,–,"inconclusive [inhibitor, partial curve]"
C[n+]1ccccc1/C=C/c1ccccc1Cl,–,"inconclusive [inhibitor, single point]"
Cc1cc(C(C)(C)C)cc(C)c1S(=O)(=O)N1CCN(C(=O)c2cc([N+](=O)[O-])c[nH]c2=O)CC1,inactive: 12.4%,–
COc1cc(CNCCO)ccc1OCCc1ccccc1,–,"inconclusive [inhibitor, single point]"
C=CCc1cc(Cl)ccc1OCCCNCCO,–,"inconclusive [inhibitor, single point]"
COc1ccc(C(=O)Nn2cc3c(c2-c2ccccc2)c(=O)n(C)c(=O)n3C)cc1,–,"inconclusive [inhibitor, partial curve]"
O=C(NC1=NCCS1)c1cccc(S(=O)(=O)N2CCc3ccccc32)c1,–,"inconclusive [inhibitor, single point]"
COc1ccccc1CNC(=O)c1oc2ccc(S(=O)(=O)N3CCOCC3)cc2c1C,–,"inconclusive [inhibitor, single point]"
COc1ccc2[nH]c3c(c2c1)CCN1C(=O)C(CC(=O)NCc2ccc(OC)c(OC)c2)C[C@H](C(=O)N2CCCCC2)[C@@]31CCc1ccccc1 (some centres undefined),–,active: 10 µM
NC(N)=N/N=C/c1cc([N+](=O)[O-])ccc1O,inactive: 12%,–
CC1=NN(c2nc(-c3ccc(C)cc3)cs2)C(=O)C1N=Nc1ccc(C(N)=O)cc1 (centres undefined),–,active: 2.82 µM
CCCCC(=O)Nc1cccc(NC(=O)c2ccccc2Br)c1,–,"inconclusive [inhibitor, single point]"
CCN1CCCC1CNC(=O)c1cc2c(-c3ccc(Cl)cc3)nn(C)c2s1 (centres undefined),–,"inconclusive [inhibitor, single point]"
CCN(CC)c1ccc2c(C)c(CN3CCOCC3)c(=O)oc2c1,–,"inconclusive [inhibitor, single point]"

Compound,"activity change, negative = inhibition",Potency
Cc1cc(=O)oc2c1c(C)nn2-c1cccc(Cl)c1,–,"inconclusive [inhibitor, single point]"
COCC(=O)N1CCC(Oc2ccc(C(=O)NC(C)c3nccs3)cc2)CC1 (centres undefined),–,"inconclusive [inhibitor, single point]"
COC(=O)c1ccc(CSc2nc3ccccc3c(=O)n2Cc2ccco2)o1,–,"inconclusive [inhibitor, single point]"
CCC(=O)N1N=C(c2c(O)n(C)c(=O)n(C)c2=O)CC1c1ccccc1 (centres undefined),–,"inconclusive [inhibitor, single point]"
O=C(Cn1ncc(Cl)c(Cl)c1=O)NC1CCS(=O)(=O)C1 (centres undefined),inactive: -26.4%,–
C=CCc1ccc(OCCOc2cccc3cccnc23)c(OC)c1,–,"inconclusive [inhibitor, partial curve]"
COc1ccc(-c2noc(C3CCCN(C(=O)Nc4ccccc4)C3)n2)cc1 (centres undefined),–,"inconclusive [inhibitor, single point]"
COc1cccc(NC(=O)C2C(c3ccccc3)C2(Cl)Cl)c1 (centres undefined),–,active: 12.6 µM
O=C(CN1CCN(c2cccc(C(F)(F)F)c2)CC1)N(C1CCCC1)C1CCS(=O)(=O)C1 (centres undefined),–,"inconclusive [inhibitor, single point]"
C/C(=N\NC(=O)C(C)Sc1ccccc1)c1ccc([N+](=O)[O-])cc1 (centres undefined),–,"inconclusive [inhibitor, single point]"
COc1ccc(Cl)cc1NC(=O)NCc1ccc2c(c1)OCO2,–,"inconclusive [inhibitor, partial curve]"
CCOC(=O)CS(=O)(=O)c1ccc(O)cc1,inactive: 13.3%,–
Cc1cccnc1NC(=O)CSc1ccc2c(c1)OCCO2,inactive: -1.63%,–
OCCN=C1CCCc2c1[nH]c1ccc(Cl)cc21,–,"inconclusive [inhibitor, single point]"
Cc1ccccc1OCCC(=O)Nc1ccc(N2CCOCC2)cc1N1CCOCC1,–,"inconclusive [inhibitor, full curve]"
CCOCCCN(C)C1CCN(C(=O)c2oc3ccccc3c2NC(=O)c2ccc([N+](=O)[O-])cc2)CC1,–,"inconclusive [inhibitor, partial curve]"
CC(=O)Nc1cccc2c1Cc1ccccc1-2,–,"inconclusive [inhibitor, single point]"
Cc1sc2ncnc(NCC(O)c3ccc([N+](=O)[O-])cc3)c2c1C (centres undefined),–,active: 11.2 µM
O=C(c1ccccc1)c1nn(-c2ccccc2)c(=O)cc1C(F)(F)F,–,"inconclusive [inhibitor, single point]"
CCOCCCN(C(=O)CCC(=O)Nc1cc(C)on1)C(C(=O)NC(C)(C)C)c1ccccc1Cl (centres undefined),inactive: -2.36%,–
Cc1ccc(-c2nnc(NC(=O)CCS(=O)(=O)c3ccc(F)cc3)o2)c(C)c1,inactive: 4.83%,–
CCn1cc(C(=O)NCCCOC(C)C)c(=O)c2cc(S(=O)(=O)N3CCC(C)CC3)ccc21,inactive: 5.17%,–
COc1ccc(CCNC(=O)c2ccncc2)cc1OC,inactive: -22.3%,–
CCCN(CCC)Cc1c(C(=O)N/N=C/C(C)=C\c2ccco2)nnn1-c1nonc1N,–,active: 8.91 µM
COc1ccc(-c2sc3ccc(N4CCOCC4)cc3c2C#CC2(O)CCCCC2)cc1,–,active: 2.82 µM

Compound,"activity change, negative = inhibition",Potency
Cc1occc1-c1nc(-c2ccccn2)no1,–,"inconclusive [inhibitor, single point]"
CN(C)CCNC(=O)c1cccc2ccc(-c3ccc(-c4ccccc4)cc3)nc12,–,"inconclusive [inhibitor, single point]"
c1ccc(COc2ccccc2CNC23CC4CC(CC(C4)C2)C3)cc1,–,"inconclusive [inhibitor, single point]"
O=C(Cc1cccs1)Nc1ccccc1C(=O)O,inactive: 12.3%,–
Cc1nnc2ccc(-c3ccc(NC(=O)c4ccco4)cc3)nn12,inactive: 4.25%,–
COc1ccc(-c2csc(N(CCCN(C)C)C(=O)c3cc(OC)c(OC)c(OC)c3)n2)cc1,inactive: -5.65%,–
Cc1noc(COc2ccc(OCc3nc(C)no3)cc2)n1,inactive: -3.38%,–
COc1ccc(NC(=O)CS(=O)CC(=O)Nc2cccnc2)cc1 (centres undefined),inactive: 8.59%,–
Cc1ccc(N/C=C(/C#N)c2ccsc2)cc1,–,"inconclusive [inhibitor, single point]"
CN(CC(=O)Nc1ccc(F)cc1)C(=O)Cn1cnc2ccc([N+](=O)[O-])cc2c1=O,inactive: -16.5%,–
O=C(CSc1nnnn1-c1ccc(F)cc1)c1ccc(O)c(O)c1,inactive: -6.51%,–
CSc1ccc(C(=O)C2CCCN(Cc3cc4ccccc4[nH]3)C2)cc1 (centres undefined),–,"inconclusive [inhibitor, single point]"
CCc1ccc2oc(C(=O)NCc3ccncc3)c(C)c2c1,–,active: 11.2 µM
CCOC(=O)c1c(NC(=O)CN2C(=O)C(=O)N(C(C)C)C2=O)sc(C)c1CC,–,"inconclusive [inhibitor, single point]"
CCN1C(=O)[C@@H]2[C@@H](c3ccc(-c4cccc(Cl)c4)cc3)N3CCC[C@@]3(C(=O)OC)[C@@H]2C1=O,inactive: -20.2%,–
O=C1CCCc2nc(N3CCCCC3)sc21,inactive: -13.4%,–
O=C(O)c1ccccc1C(=O)N1CC=C(c2ccccc2)CC1,–,"inconclusive [inhibitor, single point]"
O=C(c1ccc(Cl)cc1)C1CCCN(Cc2cnn(-c3ccccc3)c2)C1 (centres undefined),–,active: 22.4 µM
CC(C)(C)c1ccc(NC(=O)COC(=O)c2ccc3ncsc3c2)cc1,–,"inconclusive [inhibitor, partial curve, poor fit]"
CCCn1c(CCNC(=O)c2cccs2)nc2ccccc21,–,"inconclusive [inhibitor, full curve]"
CC1Sc2ccc(S(=O)(=O)CCC(=O)NC(C)c3ccccc3)cc2NC1=O (centres undefined),–,"inconclusive [inhibitor, single point]"
CCCNS(=O)(=O)c1ccc(NC(=O)c2ccccn2)cc1,inactive: -8.13%,–
Cc1ccc(-c2cc(C(=O)N3N=C(C(F)F)CC3(O)C(F)F)c3ccccc3n2)cc1C (centres undefined),–,"inconclusive [inhibitor, single point]"
COc1ccc(-n2nc3c(N4CCC(C(=O)NCCc5ccccc5C)CC4)nnc(C)c3c2C)cc1,–,"inconclusive [inhibitor, single point]"
